According to paper PMC4336329 (PLoS ONE, 2015):
The campaign covered roughly 310,000 compounds. About 14,000 (4.5%) showed an effect of 50% or more. The effect is printed as a negative number. This is one part of the list.

target: human ether-à-go-go-related gene (hERG) potassium channel (human, UniProt Q12809); test: primary screen, population patch clamp on CHO cells stably expressing hERG
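Further: peak tail current of the secondary pulse compared with the same well before compound.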

Sequence of human ether-à-go-go-related gene (hERG) potassium channel (Q12809 whole entry, looked up): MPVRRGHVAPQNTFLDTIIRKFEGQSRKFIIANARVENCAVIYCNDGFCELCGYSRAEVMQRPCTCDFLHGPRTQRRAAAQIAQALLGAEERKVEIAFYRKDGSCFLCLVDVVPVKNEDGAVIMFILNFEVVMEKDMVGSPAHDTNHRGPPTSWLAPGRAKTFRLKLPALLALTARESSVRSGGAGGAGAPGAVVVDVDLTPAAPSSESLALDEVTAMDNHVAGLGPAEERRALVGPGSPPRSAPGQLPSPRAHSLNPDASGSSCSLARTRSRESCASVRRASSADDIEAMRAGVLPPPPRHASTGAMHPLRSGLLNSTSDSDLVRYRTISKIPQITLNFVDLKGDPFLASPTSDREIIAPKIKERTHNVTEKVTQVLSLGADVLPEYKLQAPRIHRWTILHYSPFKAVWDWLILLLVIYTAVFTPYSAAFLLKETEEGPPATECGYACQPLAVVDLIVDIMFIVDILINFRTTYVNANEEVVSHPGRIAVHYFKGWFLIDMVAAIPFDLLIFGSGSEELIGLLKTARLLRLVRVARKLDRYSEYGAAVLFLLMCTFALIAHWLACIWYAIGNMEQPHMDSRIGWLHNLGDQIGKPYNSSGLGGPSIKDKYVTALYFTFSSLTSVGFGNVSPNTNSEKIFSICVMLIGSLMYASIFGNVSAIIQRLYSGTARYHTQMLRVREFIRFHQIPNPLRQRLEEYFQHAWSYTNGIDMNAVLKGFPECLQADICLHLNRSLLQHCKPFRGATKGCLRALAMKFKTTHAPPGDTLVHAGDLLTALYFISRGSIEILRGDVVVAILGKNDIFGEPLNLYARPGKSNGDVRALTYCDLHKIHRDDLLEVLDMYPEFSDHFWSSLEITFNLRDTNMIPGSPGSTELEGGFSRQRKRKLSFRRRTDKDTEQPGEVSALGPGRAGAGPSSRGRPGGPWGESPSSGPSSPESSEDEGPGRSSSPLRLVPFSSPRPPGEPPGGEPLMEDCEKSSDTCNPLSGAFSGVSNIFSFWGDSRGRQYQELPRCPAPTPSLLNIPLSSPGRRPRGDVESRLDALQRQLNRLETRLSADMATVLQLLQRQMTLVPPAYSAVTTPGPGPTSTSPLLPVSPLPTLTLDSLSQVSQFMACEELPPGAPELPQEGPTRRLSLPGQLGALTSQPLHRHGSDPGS

Going from `COc1cc(C2C(C(=O)c3cccs3)=C(O)C(=O)N2CCN2CCOCC2)ccc1OCCC(C)C` (stereo not shown) to `CCCOc1ccc(C(C)=O)cc1CN1CCOCC1.Cl`, the “hERG current change (%, negative = inhibition) at 10uM” value falls from 14.7% to 2.99%.

First: O=C(NCCN1CCN(Cc2ccccc2Cl)CC1)Nc1ccccc1
Second: O=C(CCSCc1ccccc1Cl)N1CCN(c2cccc(Cl)c2)CC1
The “hERG current change (%, negative = inhibition) at 10uM” value of the first is lower: -47.5% for the first, 4.72% for the second.

Compared with `Cc1nc(N2CCN(S(=O)(=O)c3ccccc3)CC2)c2cc(-c3ccccc3)sc2n1`, `O=S(=O)(c1ccccc1)N1CCN(c2ncccn2)CC1` is lower in “hERG current change (%, negative = inhibition) at 10uM” value: 6.6% for the first, -4.57% for the second.

First: COc1ccc(N=c2scc(C)n2CCCN2CCCC2=O)cc1
Second: CCCOC1CCCN(C(=O)c2cc(COc3ccc(-n4cncn4)cc3)on2)C1 (stereo not shown)
The “hERG current change (%, negative = inhibition) at 10uM” value of the first is higher: -18.9% for the first, -79% for the second.

Going from `CC(C)(C)NC(=O)COC(=O)c1ccccc1C(=O)c1ccccc1` to `O=C(COC(=O)c1cccc(C(F)(F)F)c1)NCc1ccccc1`, the “hERG current change (%, negative = inhibition) at 10uM” value falls from 39.7% to 19.2%.

First: O=C(NCc1ccccc1)N1CCC(CO)(CCc2ccccc2)CC1
Second: CN(C)C1=NC[C@H](Cc2ccccc2)N1CCCCc1ccccc1
The “hERG current change (%, negative = inhibition) at 10uM” value of the first is higher: -38% for the first, -71% for the second.

Compared with `COc1ccccc1NS(=O)(=O)c1cccc(C(=O)NN=C2CCCC2)c1`, `Cc1ccc2nc(C)c(C(=O)NN=C3CCCCCC3)n2c1` is higher in “hERG current change (%, negative = inhibition) at 10uM” value: 0.33% for the first, 15.4% for the second.

Compared with `O=C(N/N=C/c1sc(N2CCCCC2)nc1-c1cccs1)C1CC1`, `O=C(CN1CCSCC1)N/N=C/c1cccc(Cl)c1` is higher in “hERG current change (%, negative = inhibition) at 10uM” value: -7.28% for the first, -2.93% for the second.

Compared with `CCOc1ccc(S(=O)(=O)N2CCC(C(=O)N3CCCC3)CC2)cc1C`, `O=[N+]([O-])c1cc(S(=O)(=O)N2CCCC2)ccc1NCCCN1CCOCC1` is lower in “hERG current change (%, negative = inhibition) at 10uM” value: 3.91% for the first, -22.7% for the second.

Going from `Cn1cc(CN2CCCC(CO)(Cc3ccccc3)C2)cn1` (stereo not shown) to `COCCCNC(=O)CSc1nc2ccc(N3CCOCC3)cc2c(=O)n1CCc1ccccc1`, the “hERG current change (%, negative = inhibition) at 10uM” value falls from 4.27% to -59.8%.

First: O=C(Cn1ncnn1)OCc1ccccc1Cl
Second: Cc1cc([N+](=O)[O-])nn1CC(=O)N/N=C/c1ccccc1F
The “hERG current change (%, negative = inhibition) at 10uM” value of the first is higher: 9% for the first, -5.15% for the second.

Going from `Cc1cc(NC(=O)NC(=O)c2ccc(F)cc2F)n[nH]1` to `O=C(COc1cccc2c1CCNC2=O)Nc1cccc(F)c1`, the “hERG current change (%, negative = inhibition) at 10uM” value falls from 22.9% to 9.76%.

First: O=C(COC(=O)C1CCN(c2ccc(C(F)(F)F)cn2)CC1)c1ccc(Cl)cc1
Second: CCCNC(=O)N1CCC(C(=O)c2ccc(Cl)cc2)CC1
The “hERG current change (%, negative = inhibition) at 10uM” value of the first is lower: -26.6% for the first, -23.6% for the second.

Going from `O=C(NCc1ccco1)c1ccc(COCC(F)(F)F)cc1` to `O=C(NCc1ccco1)C1(S(=O)(=O)c2ccc(Cl)cc2)CC1`, the “hERG current change (%, negative = inhibition) at 10uM” value rises from -18.4% to 1.22%.

First: CCCc1cc(=O)[nH]c(SCC(=O)NC2CCCc3ccccc32)n1 (stereo not shown)
Second: CCCc1cc(=O)[nH]c(SCc2nc3ccc([N+](=O)[O-])cc3[nH]2)n1
The “hERG current change (%, negative = inhibition) at 10uM” value of the first is higher: 0.372% for the first, 0.26% for the second.

First: COc1cccc(NC(=O)[C@@H](NC(=O)N2C[C@H]3C[C@@H](C2)c2cccc(=O)n2C3)C(C)C)c1
Second: COc1ccc(N(CC(=O)NC(C)C)S(=O)(=O)c2ccc(NC(C)=O)cc2)cc1
The “hERG current change (%, negative = inhibition) at 10uM” value of the first is higher: 20.6% for the first, 2.29% for the second.

First: Cc1ccccc1NC(=O)c1ccccc1NC(=O)c1cccs1
Second: COC(=O)c1sccc1NC(=O)Nc1cc(C)ccc1C
The “hERG current change (%, negative = inhibition) at 10uM” value of the first is higher: 11.6% for the first, 4.5% for the second.

Going from `Cc1cc(C)n2cc(CSc3nnnn3-c3ccccc3)nc2n1` to `Cc1cc(C)n2nc(SCc3ccc(C#N)cc3)nc2n1`, the “hERG current change (%, negative = inhibition) at 10uM” value rises from -56.3% to -11.4%.

Compared with `O=C(CSc1cn(Cc2cccc(F)c2)c2ccccc12)NCc1ccc(F)cc1`, `O=C(NC(Cc1c[nH]c2ccccc12)C(=O)NCc1ccc(F)cc1)OCc1ccccc1` (stereo not shown) is lower in “hERG current change (%, negative = inhibition) at 10uM” value: 9.86% for the first, 4.2% for the second.

Compared with `COc1ccccc1N1CCN(C(c2cccs2)c2nnnn2C2CCCC2)CC1` (stereo not shown), `Cc1cc2c(OCC(O)CNC3CCCCC3)cccc2[nH]1` (stereo not shown) is higher in “hERG current change (%, negative = inhibition) at 10uM” value: 7.66% for the first, 8.67% for the second.

First: CC(=O)c1sc(N/N=C\c2ccccc2O)nc1C
Second: COc1ccc(O)c(C=Nc2cc(NC(C)=O)c(Cl)cc2Cl)c1
The “hERG current change (%, negative = inhibition) at 10uM” value of the first is higher: 14.8% for the first, 2.95% for the second.

First: COc1ccc(/C=C2\SC(=O)N(CCC(=O)N3CCCCC3)C2=O)cc1OC
Second: COc1ccc(/C=C2/SC(=O)N(CCNC(=O)C3COc4ccccc4O3)C2=O)cc1 (stereo not shown)
The “hERG current change (%, negative = inhibition) at 10uM” value of the first is higher: 15.7% for the first, -25.7% for the second.

Compared with `Cc1csc(NC(=O)CCn2c(=O)oc3ccccc32)n1`, `CC(C)CNC(=O)[C@@H]1CSC2c3ccccc3C(=O)N21` (stereo partly shown) is higher in “hERG current change (%, negative = inhibition) at 10uM” value: -6.75% for the first, 11.6% for the second.

First: COC(=O)CSc1cc([N+](=O)[O-])ccc1NC(=O)OC
Second: CC(C)C(NC(=O)CSCc1ccc([N+](=O)[O-])cc1)C(C)C
The “hERG current change (%, negative = inhibition) at 10uM” value of the first is higher: 28.8% for the first, -40.2% for the second.

First: Cc1ccc(NC(=S)N(CCN2CCOCC2)Cc2ccccc2F)cc1
Second: CN(CCc1ccccn1)C(=O)Nc1ccc(F)cc1
The “hERG current change (%, negative = inhibition) at 10uM” value of the first is lower: -2.88% for the first, 12.7% for the second.

First: CC(C)(O)CNC(=O)C(Cc1ccccc1)N1C(=O)c2ccccc2C1=O (stereo not shown)
Second: O=C(O)c1ccc(Cl)c(S(=O)(=O)N(Cc2ccccc2)c2ccccc2)c1
The “hERG current change (%, negative = inhibition) at 10uM” value of the first is higher: 25.7% for the first, 7.76% for the second.

Going from `Cc1cc(C(=O)NC2CCCc3c2cnn3-c2ccc(C(C)(C)C)cc2)n[nH]1` (stereo not shown) to `CCn1c(SCC(=O)Nc2ccc3c(c2)n(C)c(=O)n3C)nnc1-c1ccncc1`, the “hERG current change (%, negative = inhibition) at 10uM” value rises from -5.84% to 7.64%.

Compared with `COC(=O)C(C)Oc1ccc(Cl)c(CN2OCC(C)(C)C2=O)c1` (stereo not shown), `Cc1cc2occ(CC(=O)NCc3cccs3)c2cc1C(C)C` is lower in “hERG current change (%, negative = inhibition) at 10uM” value: 5.26% for the first, -23.3% for the second.

Going from `CCCCC(=O)Nc1ncc(Br)s1` to `COc1ccc(C(=O)NCCCNC(=O)c2cccnc2)cc1OC`, the “hERG current change (%, negative = inhibition) at 10uM” value rises from -7.58% to 1.59%.

Going from `CC(=O)c1ccc(N2C(=NC(=O)CCC3CCCC3)SC3CS(=O)(=O)CC32)cc1` (stereo not shown) to `COCCC(=O)N1CCC(Oc2ccc(C(=O)NCCc3cnn(C)c3)cc2)CC1`, the “hERG current change (%, negative = inhibition) at 10uM” value falls from 15.4% to 8.9%.

Going from `CCCNC(=O)N1[C@H]2CC[C@@H]1C(C(=O)OC)=C(c1ccc(-c3ccccc3)c(F)c1)C2` to `O=S1(=O)CCOC[C@H](c2ccccc2)N1Cc1cccc(F)c1`, the “hERG current change (%, negative = inhibition) at 10uM” value rises from -3.36% to 3.71%.

Going from `CCN1CC(O)=C(c2nc3ccccc3s2)C1=N` to `Cc1cc(SCC#N)nc2ccccc12`, the “hERG current change (%, negative = inhibition) at 10uM” value rises from 3.62% to 11.8%.

Going from `O=C(CCCCn1c(=O)c2ccccc2n(Cc2ccc(F)cc2Cl)c1=O)NCc1ccco1` to `Cn1nc(C(=O)Oc2cc(=O)n(C)c3ccccc23)c2ccccc2c1=O`, the “hERG current change (%, negative = inhibition) at 10uM” value rises from -5.07% to 15.7%.

First: CC1CC(C)CN(S(=O)(=O)c2cc3c4c(c2)CCC(=O)N4CCC3)C1 (stereo not shown)
Second: COC(CN(C)S(=O)(=O)c1cc2c3c(c1)CCC(=O)N3CCC2)OC
The “hERG current change (%, negative = inhibition) at 10uM” value of the first is lower: -5.2% for the first, 10.6% for the second.

Compared with `Cc1ccc(-c2n[nH]c(Cc3ccccc3)n2)cc1`, `c1ccc(-c2nc3ccccc3[nH]2)nc1` is higher in “hERG current change (%, negative = inhibition) at 10uM” value: -1.91% for the first, 10.2% for the second.

Going from `CCOc1ccc(CN2CCN(Cc3cccn3-c3nccs3)CC2CCO)cc1` (stereo not shown) to `Cc1cc(C)n2nc(-c3sccc3-n3cccc3)cc2n1`, the “hERG current change (%, negative = inhibition) at 10uM” value rises from -76.1% to 15.6%.

Compared with `C=CCN(CC=C)CCOc1ccccc1[N+](=O)[O-].O=C(O)C(=O)O`, `C=CCN(C(=O)c1ccccc1)C1CCS(=O)(=O)C1` (stereo not shown) is higher in “hERG current change (%, negative = inhibition) at 10uM” value: -14.4% for the first, 11.5% for the second.

Compared with `CS(=O)(=O)Nc1ccc(C2=NN(C(=O)c3ccco3)C(c3ccccc3)C2)cc1` (stereo not shown), `O=C1CC(c2cccc(Cl)c2)C(n2cncn2)C(=O)C1C1NCCc2ccccc21` (stereo not shown) is higher in “hERG current change (%, negative = inhibition) at 10uM” value: -77.6% for the first, -0.00052% for the second.

Going from `CCOC(=O)c1c(C)[nH]c(C(=O)COC(=O)CN2C(=O)C3CCCCC3C2=O)c1C` (stereo not shown) to `CCOC(=O)C1=C(C)NC(=O)NC1c1cc(C)sc1C` (stereo not shown), the “hERG current change (%, negative = inhibition) at 10uM” value rises from -16.8% to 11.7%.

Compared with `Cc1cccc(C(=O)NC(C)C2CC3CCC2C3)c1` (stereo not shown), `Cn1cc([N+](=O)[O-])c(C(=O)Nc2ccn(C34CC5CC(CC(C5)C3)C4)n2)n1` is lower in “hERG current change (%, negative = inhibition) at 10uM” value: -8.73% for the first, -20.9% for the second.

Going from `CCN(CC)c1cc(Oc2ccccc2)ncn1` to `Cc1noc(C)c1C(=O)N(C)Cc1ccccc1`, the “hERG current change (%, negative = inhibition) at 10uM” value rises from -9.54% to 16.4%.

First: CC(C)c1ccc(CC(C)C2C3=C(CCCC3=O)OC3=C2C(=O)CCC3)cc1 (stereo not shown)
Second: N#Cc1c(N)nc2c(c1-c1ccncc1)CCCCC2
The “hERG current change (%, negative = inhibition) at 10uM” value of the first is higher: -7.75% for the first, -12.3% for the second.

Compared with `Cc1ccc(S(=O)(=O)NCCNS(=O)(=O)c2ccc(C)cc2)cc1`, `CCC(C)(C)NC(=O)C(c1ccccc1)N(Cc1cccnc1)C(=O)c1csnn1` (stereo not shown) is lower in “hERG current change (%, negative = inhibition) at 10uM” value: 9.24% for the first, -12.1% for the second.

Compared with `O=C(CC1C(=O)NCCN1Cc1ccccc1C(F)(F)F)NCCN1CCCCC1=O` (stereo not shown), `CC(C)COC(=O)NCCCOC(=O)Nc1ccccc1` is lower in “hERG current change (%, negative = inhibition) at 10uM” value: 16.9% for the first, 3.21% for the second.

Going from `Cl.O=C1OC(CN2CCOCC2)CN1N=Cc1ccc([N+](=O)[O-])o1` (stereo not shown) to `CCn1nnnc1SCC(=O)N1CCOCC1`, the “hERG current change (%, negative = inhibition) at 10uM” value rises from 3.83% to 8.39%.

For `CC1(C)Oc2ccc3ccc(=O)oc3c2/C(=C/NNC(N)=S)C1=O`, the “hERG current change (%, negative = inhibition) at 10uM” value was 10.3%.
